Test results: PubChem BioAssay AID588453 (National Center for Advancing Translational Sciences (NCATS), 2011)
Among all 390,000 compounds or so, about 4,000 (1%) were called active. Inconclusive means that the source gave no clear call. Such entries were picked first, then a sample of the others. Calls come from the whole dose curve; as a rule, active = well fitted inhibition curve with a large enough effect; inconclusive = small, poorly fitted or top-dose-only effect; inactive = no such curve, though single readings can be large or run the other way. Potencies beside an inconclusive call are fits to weak or partial responses and may not hold up.

Target: Thioredoxin reductase 1, cytoplasmic (Rattus norvegicus) (UniProt O89049)
Sequence of UniProt O89049 (O89049 whole entry, looked up): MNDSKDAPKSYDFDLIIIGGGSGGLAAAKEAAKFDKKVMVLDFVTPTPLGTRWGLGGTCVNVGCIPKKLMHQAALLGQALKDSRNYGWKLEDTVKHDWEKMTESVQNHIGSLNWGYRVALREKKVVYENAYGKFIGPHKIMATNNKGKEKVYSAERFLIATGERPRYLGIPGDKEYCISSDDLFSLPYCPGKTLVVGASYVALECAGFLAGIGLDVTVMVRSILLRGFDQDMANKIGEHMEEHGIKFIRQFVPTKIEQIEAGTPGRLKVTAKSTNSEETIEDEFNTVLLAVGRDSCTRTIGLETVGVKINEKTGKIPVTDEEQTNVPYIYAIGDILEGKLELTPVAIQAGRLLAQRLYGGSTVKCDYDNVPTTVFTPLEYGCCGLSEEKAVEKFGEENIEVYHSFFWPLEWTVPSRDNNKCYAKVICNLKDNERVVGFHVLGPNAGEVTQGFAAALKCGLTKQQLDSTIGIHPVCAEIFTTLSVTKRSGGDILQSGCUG
Experiment: qHTS Assay for Inhibitors of Mammalian Selenoprotein Thioredoxin Reductase 1 (TrxR1): qHTS; note: nearly all actives have a fitted effect of over 65% in size
Details: recombinant rTrxR1, NADPH fluorescence consumption, selenite substrate; series mostly up to 114 µM; activity change, negative = inhibition: at the top concentration
How it was run: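 Rat TrxR1 (90 nM in the dispensed reagent) was pre-reduced with 400 uM NADPH for 5 min at room temperature, then incubated with compound for 15 min. After 400 uM selenite was added, NADPH fluorescence (Ex 340/Em 450 nm) was followed for 8 min.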
% is set by controls: 0 for no effect and ±100 for the full control effect; potency is the fitted concentration of half-maximal effect; tags give direction and shape of the fitted curve.

Compound	Potency	activity change, negative = inhibition
O=C(/C=C1\C(=O)Nc2ccccc21)/C=C1\C(=O)Nc2ccccc21	active: 1 µM	–
COc1cc2[nH]c(=S)nc(NCCc3ccc(S(N)(=O)=O)cc3)c2cc1OC	inconclusive: 39.8 µM [inhibitor, single point]	–
O=C(NCc1ccc(Cl)cc1)C(=O)NCC(c1cccnc1)N1CCN(c2ccc(F)cc2)CC1 (stereo not given)	–	inactive: 19.9% [at 57.1 µM]
CN(C)c1ccc(/C=C2\C=Cc3cc(N)ccc32)cc1	inconclusive: 50.1 µM [inhibitor, partial curve, poor fit]	–
CN1CCN(c2ccc(NC(=S)NC(=O)c3cccc4ccccc34)cc2)CC1	inconclusive: 79.4 µM [inhibitor, partial curve]	–
Cc1ccc(S(=O)(=O)c2nc(-c3ccco3)oc2NCC2CCCO2)cc1 (stereo not given)	inconclusive: 56.2 µM [inhibitor, partial curve, poor fit]	–
CCOc1ccc(C(=O)N2CCC(c3nc(-c4ccc(S(=O)(=O)N5CCCC5)cc4)no3)CC2)cc1	–	inactive: 3.65%
Cc1ccc(C(O)(C(=O)NNc2ccccn2)c2ccc(C)cc2)cc1	–	inactive: 23% [at 57.1 µM]
CO[C@@]12[C@@H]3N[C@@H]3CN1C1=C(C(=O)C(N)=C(C)C1=O)[C@@H]2COC(N)=O	inconclusive: 79.4 µM [inhibitor, partial curve]	–
O=S(=O)(c1cccc(C(F)(F)F)c1)N1CCC(Oc2ccc(-n3cnnn3)cc2)CC1	–	inactive: 15.6%
Oc1ccc(O)c(-c2cnns2)c1	–	inactive: -7.75%
COc1ccccc1NC(=O)CSc1nc2nc(C)cc(C)c2c(=O)[nH]1	inconclusive: 39.8 µM [inhibitor, single point]	–
O=C(Nc1ccc([N+](=O)[O-])cc1Cl)c1cc(Cl)ccc1O	inconclusive: 0.0053 µM [inhibitor, full curve, poor fit]	–
CCCCNC(=S)Nc1ccc2nc3n(c(=O)c2c1)CCCCC3	inconclusive: 17.8 µM [inhibitor, full curve]	–
O=C(O)C(Oc1ccc2c(c1)oc(=O)c1ccccc12)c1ccccc1 (stereo not given)	inconclusive: 56.2 µM [inhibitor, single point]	–
COc1ccc(Cl)cc1NC(=S)NCc1cccnc1	inconclusive: 4.47 µM [inhibitor, full curve, poor fit]	–
N#Cc1cccc(NC(=O)CNc2cccc(S(=O)(=O)N3CCCC3)c2)c1	–	inactive: 44% [at 57.1 µM]
Oc1c(C(c2ccccn2)N2CCCCC2)cc(Cl)c2cccnc12 (stereo not given)	inconclusive: 89.1 µM [inhibitor, single point]	–
O=C(NCC(=O)N(c1ccc2c(c1)OCO2)C(C(=O)NC1CCCC1)c1ccncc1)c1ccco1 (stereo not given)	inconclusive: 28.2 µM [inhibitor, single point]	–
CC1CCCCN1C(=O)COC(=O)c1ccc(S(C)(=O)=O)c([N+](=O)[O-])c1 (stereo not given)	active: 10 µM	–
O=C(CC1C(=O)NCCN1Cc1ccc(Cl)c(F)c1)NC1CCC1 (stereo not given)	inconclusive: 28.2 µM [inhibitor, partial curve, poor fit]	–
Oc1c(C(Nc2cccnc2)c2ccc(C(F)(F)F)cc2)ccc2cccnc12 (stereo not given)	inconclusive: 15.8 µM [inhibitor, full curve]	–
O=S(=O)(c1cc(O)ccc1O)c1cccc2c(S(=O)(=O)c3cc(O)ccc3O)cccc12	inconclusive: 25.1 µM [inhibitor, partial curve]	–

Compound	Potency	activity change, negative = inhibition
COc1ccc(/C=C(\C#N)C(=O)N2CCOCC2)cc1Br	inconclusive: 50.1 µM [inhibitor, partial curve]	–
c1ccc(Cn2nnnc2C(c2cccs2)N2CCOCC2)cc1 (stereo not given)	–	inactive: 5.43%
COc1ccc2noc3c2c1C(=O)c1ccccc1-3	inconclusive: 70.8 µM [inhibitor, single point]	–
Cc1ccccc1NC(=O)c1sc2nc3c(c(-c4ccco4)c2c1N)CCC3	inconclusive: 44.7 µM [inhibitor, partial curve, poor fit]	–
CCOc1ccc(CC(=O)NNC(=O)/C=C/C(=O)O)cc1	inconclusive: 89.1 µM [inhibitor, partial curve, poor fit]	–
Fc1ccc(SCCc2ccncc2)cc1	inconclusive: 63.1 µM [inhibitor, single point]	–
O=C(CC1N=C2c3ccccc3N=C(SCc3ccc(F)cc3)N2C1=O)NCc1ccco1 (stereo not given)	inconclusive: 31.6 µM [inhibitor, partial curve]	–
Cn1c(SCC(=O)OCc2ccccc2)nnc1-c1ccco1	inconclusive: 39.8 µM [inhibitor, single point]	–
COc1ccc(N=c2ssnc2Cl)cc1	inconclusive: 28.2 µM [inhibitor, single point]	–
COc1ccc(NC(=S)NC(=O)c2cccnc2)cc1	inconclusive: 56.2 µM [inhibitor, single point]	–
Cc1ccc(C2=NOC(=O)/C2=C\C=C\c2ccccc2)cc1	inconclusive: 8.91 µM [inhibitor, partial curve]	–
CNc1nc(Nc2ccc(Br)cc2)nc(N)c1[N+](=O)[O-]	–	inactive: -8.75%
O=C(c1ccc(Cl)cc1)C(CN1CCCC1)c1ccccc1 (stereo not given)	active: 35.5 µM	–
O=C(CCC(=O)c1ccc(F)cc1)OCc1nnc(-c2ccc([N+](=O)[O-])cc2)o1	active: 50.1 µM	–
CN1C(=O)N(C)c2ccc(Br)c3cccc1c23	–	inactive: 25.5%
CCc1ccc(NC(=O)CSc2nc3ncccc3[nH]2)cc1	–	inactive: 15.1%
CCOC(=O)/C=C/C(=O)OCC(=O)Nc1ccc(Cl)cc1Cl	inconclusive: 12.6 µM [inhibitor, partial curve]	–
COc1ccc(Nc2ccc(S(=O)(=O)N3CCCCC3)cc2[N+](=O)[O-])cc1	–	inactive: -14.8%
CCc1ccccc1N1CSC2=C(C#N)C(c3ccccc3F)CC(=O)N2C1 (stereo not given)	inconclusive: 11.2 µM [inhibitor, single point]	–
Cc1ccc(/C=C/C(=O)Nc2cccc(S(=O)(=O)N3CCOCC3)c2)o1	inconclusive: 39.8 µM [inhibitor, partial curve, poor fit]	–
O=C(/C=C/c1ccco1)N(Cc1cccc(F)c1)C1CCS(=O)(=O)C1 (stereo not given)	active: 35.5 µM	–
O=C(c1ccc(S(=O)(=O)Nc2cccc(C(F)(F)F)c2)cc1)N1CCOCC1	–	inactive: 10.9%
